# Results from paper PMC12136788.
# The other results are listed elsewhere or left out.
# B1: chr12:88493871:88493972:-|3pUTR|ENSG00000049130|msi1|total|mutant (ssRNA)
# RNA: GGGAGUUCUACAGUCCGACGAUCAAGUAUCUUGACCAUAAAAAGUCAUUGCUGUUCUUGUUUCUAAUGUAAACCGUGUCCAUCCGUAAAAGUGAAAUUCAGUCUUAAGCCGGGUGAAUUGGAUCACCAUUUACACAAGAGAUGCAACAGAGGAUUGAGCAUCA
# B2: chr1:71064632:71064733:-|3pUTR|ENSG00000132485|msi1|FALSE|bound_elsewhere (ssRNA)
# RNA: GGGAGUUCUACAGUCCGACGAUCGCUAAGACAGGAUUACCUAGGCUUGCCUGAACUUUGGGCAUGGAAGAAAGACUGGAAACUAGUUGGAAACAACAUACUUAUGGAAAAGAAAGUCAGCCUUUUUAUGCUGUUAACAGAUGUCAACAGAGGAUUGAGCAUCA
# B3: chrX:115010634:115010735:-|CDS|ENSG00000123496|msi1|FALSE|unique (ssRNA)
# RNA: GGGAGUUCUACAGUCCGACGAUCUGGAUCAUCAGAGAACAAGCCUAUCAGAUCCAGUUAUUUCACUUUUCAGCUUCAAAAUAUAGGUGAUGUAAACCAACAAACAACUUCAAAUUCAUUGUUUCUAGUUUAGGCCAUUUACAACAACAGAGGAUUGAGCAUCA
# B4: chr10:119072878:119073036:-|CDS|ENSG00000107581|unk|FALSE|unique (ssRNA)
# RNA: GGGAGUUCUACAGUCCGACGAUCCUUUUAACUCCAUGGGUUAAAUUCCUGUGGGAGUCUUACAGGCAGUGUUUGGACCUUCUUAGAAACAAUUCUAGAGUAGAGCGCCUGUACCAUGAUAUUGCCCAGCAAGGUAAGAUGAGACAACAGAGGAUUGAGCAUCA
# B5: ENSG00000136451:be:win_3951|3pUTR|ENSG00000136451|bound_else_gene|NA|bound_elsewhere_windowed (ssRNA)
# RNA: GGGAGUUCUACAGUCCGACGAUCGUAUGCAUUCUUUAUUCACUUAAGAAGCUUGUCUGCAAUAAUAAAGCCACGUCAUGUCUUCUUUUGGGAGGGAGAGAGUCGAUGGCAGGAGGGGGUUUUGGGUGGGCCACUGAAAAGGGGCAACAGAGGAUUGAGCAUCA
# B6: chr18:722677:722778:-|3pUTR|ENSG00000176105|msi1|FALSE|unique (ssRNA)
# RNA: GGGAGUUCUACAGUCCGACGAUCCCGCGCCCAGCCUACAUUCACUUCUAAAGUCUAUGUAAUGGUGGUCAUUUUUUCCCUUUUAGAAUACAUUAAAUGGUUGAUUUGGGGAGGAAAACUUAUUCUGAAUAUUAACGGUGGUGACAACAGAGGAUUGAGCAUCA
# B7: ENSG00000070961:be:win_1551|CDS|ENSG00000070961|bound_else_gene|NA|bound_elsewhere_windowed (ssRNA)
# RNA: GGGAGUUCUACAGUCCGACGAUCAAUUUCUGUGAAUUGUGCUUAUACAUCAAAAAUAUUGCCACCAGAGAAAGAGGGUGGAUUACCUCGUCACGUUGGUAAUAAAACUGAAUGUGCCUUGUUGGGACUUCUUUUGGAUUUAAACAACAGAGGAUUGAGCAUCA
# B8: chr10:95311796:95311897:-|3pUTR|ENSG00000095637|unk|FALSE|unique (ssRNA)
# RNA: GGGAGUUCUACAGUCCGACGAUCCAGACAUAGAUUUUUCUGUUCAUUUAUUUUUCUUCAUUGCAGUGGAUUGAUUUGAUAAAUAGAUGUGUUGAAUUACUACAUUUGCUGUACAUAUUAUUUAAUAAACUUUAUUCAGAAUUGCAACAGAGGAUUGAGCAUCA
# B9: chr19:12791443:12791544:+|5pUTR|ENSG00000171223|unk|total|mutant (ssRNA)
# RNA: GGGAGUUCUACAGUCCGACGAUCGGGGGGCGCGGGGGCCCGGCUCCGGCGACGGCCAAUCGGAGCGCACUUCCGUGGCUGACCCGCGCGGUAUAAAGGCGUGUGGCUCAGGCUGAGCGGCUGGGACCUUGAGAGCGGCCAGGCCAACAGAGGAUUGAGCAUCA
# B10: chr1:94897714:94897775:-|CDS_3pUTR|ENSG00000117519|msi1_unk|total|mutant (ssRNA)
# RNA: GGGAGUUCUACAGUCCGACGAUCGCGAGUACCAGGAUGACUACCCCAGAGAUUACCAAUACCGCGACCAAGGCAUUGAUUAUCCGAUCCACACAGAAGGAGCUCAGUAUUCCGUCCUUUGUUUUUAUUCAGUGAGAACCAAGCCAACAGAGGAUUGAGCAUCA
# B11: chr2:32224452:32224765:-|three_prime_utr|ENSG00000091106|control|control|control (ssRNA)
# RNA: GGGAGUUCUACAGUCCGACGAUCUCGUGUGAGCAGUGAUGGAUGGCUUGCCUUCAUGGGUGUAUUUGAGAAUCUUAAGCAAUUAGUGUUUUUUGACUUUAGUACUAAAGAAUUUCUACCUGAUCCAGCAUUAGUCAGAAAACUCAACAGAGGAUUGAGCAUCA
# B12: chr15:40213340:40213445:+|CDS|ENSG00000156970|unk|total|mutant (ssRNA)
# RNA: GGGAGUUCUACAGUCCGACGAUCACACAGUGAAUAUAUUACCCAUGAAAUAACAGUGUUGAUUAUUUAUAACCUUUUGACAACCGUGGAGAUGCUACACAAAGCAGAAACCGUCCAUGGUGACUUGAGUCCAAGGUGUCUGAUCAACAGAGGAUUGAGCAUCA
# B13: chr13:73693106:73693207:-|3pUTR|ENSG00000118922|msi1|total|mutant (ssRNA)
# RNA: GGGAGUUCUACAGUCCGACGAUCCAGAGAACACAGAGAGGGACAAACACAGCCAUGAACCCCCUGGCACCCGUACCAGCACCCCGUUGGCAAGCCGUGGGUGCAUCUCUCAAGUGAAGUGCCGAUUUGUAUUCCGUCCUGCUUCAACAGAGGAUUGAGCAUCA
# B14: chr1:67426168:67426278:-|CDS|ENSG00000142864|unk|total|mutant (ssRNA)
# RNA: GGGAGUUCUACAGUCCGACGAUCAUAAGACGAGUUGGAAGAAGACCUGAUCAACAACUUCAGGGUGAAGGGAAAAUAAUUGACCGAAGACCAGAAAGGCGACCACCUCGUGAACGAAGAUUCGAAAAGCCACUUGAAGAAAAGCAACAGAGGAUUGAGCAUCA
# B15: chr12:285015:285116:-|3pUTR|ENSG00000073614|msi1|FALSE|bound_elsewhere (ssRNA)
# RNA: GGGAGUUCUACAGUCCGACGAUCUAACAGGGCAUAUAGGAUGUGGCUUUUGUCCAGCUGAUAGUAGUUAGAGGCUUACAACUUAGGAGCAGCACCAACUGAAGGUGCUAAUUGCUUGGAUCUCCUUCAUUGGGAUAGUUGGAGCAACAGAGGAUUGAGCAUCA
# B16: chr11:101473508:101473773:-|CDS|ENSG00000137672|control|control|control (ssRNA)
# RNA: GGGAGUUCUACAGUCCGACGAUCUCCUCAAAUAAUAUCUGAAGGUCUUUAUGCAAUUGCUGUAGUUUUAAGUUUCUCUAGGAUAGCUUAUAUUUUACCAGCAAAUGAAAGCUUUGGACCUCUGCAGAUAUCACUUGGAAGAACCAACAGAGGAUUGAGCAUCA
# B17: chr15:41480918:41481019:+|3pUTR|ENSG00000137815|msi1|total|mutant (ssRNA)
# RNA: GGGAGUUCUACAGUCCGACGAUCCCUCCCCCAGGGCCCCACCCAGUGUGGGCCUGGGCUCUCUUGGGCUUUAUCCAUGUCUUCCGAUUUGUGUUUGCCUUUUGUUUUUUUAACCGCGCAGUUCAUUGGCCACUCUGCACGCAUCAACAGAGGAUUGAGCAUCA
# B18: chr7:40094668:40094770:+|CDS|ENSG00000065883|unk|FALSE|unique (ssRNA)
# RNA: GGGAGUUCUACAGUCCGACGAUCGGAUAUGGAGACAUUUACCUCAAUGCUGGUCCCAUGUUGUUUAGUGGAGACAAGGACCAUAGAUUUGAAUAUAGCCAUGGUCCUAUUGCAGUCCUGGCAAACAGCAGUGACCCUUCCACGCAACAGAGGAUUGAGCAUCA
# B19: chr8:23842440:23842541:-|3pUTR|ENSG00000159167|msi1|total|mutant (ssRNA)
# RNA: GGGAGUUCUACAGUCCGACGAUCCCAAUGCGACAAGCCGUUCAUGAGUAUUCCCCGCAAAUUUCUCUCUUUCUUCAGUUCAGCCGAUUUCCUUUUUUCUUUUCUUUUUUUUUUUUUUUUUUUUUGGCUGUGACCUCUUCAAACCAACAGAGGAUUGAGCAUCA
# B20: ENSG00000107863:be:win_1051|CDS|ENSG00000107863|bound_else_gene|NA|bound_elsewhere_windowed (ssRNA)
# RNA: GGGAGUUCUACAGUCCGACGAUCUACAGUGGACAUUCUGAUGGAAUCUCAAGCAGCAGAUCUCAAGCUGUGGAGGCUCCCUCUGUAUCUGUUAAUCACUAUUCGCCAAAUUCCCAUCAGCACAUAGACUGGAAAAACUAUAAACAACAGAGGAUUGAGCAUCA
# B21: chr14:106116634:106116941:-|CDS|ENSG00000211941|control|control|control (ssRNA)
# RNA: GGGAGUUCUACAGUCCGACGAUCUGGAUCCGCCAGGCUCCAGGGAAGGGGCUGGAGUGGGUUUCAUACAUUAGUAGUAGUAGUAGUUACACAAACUACGCAGACUCUGUGAAGGGCCGAUUCACCAUCUCCAGAGACAACGCCCAACAGAGGAUUGAGCAUCA
# B22: chr2:73226876:73226918:+|3pUTR|ENSG00000135632|msi1_unk|total|mutant (ssRNA)
# RNA: GGGAGUUCUACAGUCCGACGAUCAUCUUCCGGGUCUCCACAGACUAACAUUGAAGUCUUCCAGAAACCUCGAGGAGCUGGGCCCGAUACUUCGAGAGCCGCCCUGUCUUGUCCCCUCCUACCCCCAGAUCCGCACCACCCCUCCAACAGAGGAUUGAGCAUCA
# Molecular target: MSI1 full-length (mouse, UniProt Q61474 1-362)
# Test: nsRBNS (natural sequence RNA bind-n-seq); RBNS binding buffer (assumed for nsRBNS): 25 mM Tris pH 7.5, 150 mM KCl, 3 mM MgCl2, 0.01% Triton X-100, 500 ug/ml BSA, 20 U/ml SUPERase-In, 4 C; UNK is unkempt and MSI1 is Musashi-1; names of the RNAs are library labels; protein concentration not given here; high values mean tight binding
# UniProt Q61474, sequence (Q61474 whole entry): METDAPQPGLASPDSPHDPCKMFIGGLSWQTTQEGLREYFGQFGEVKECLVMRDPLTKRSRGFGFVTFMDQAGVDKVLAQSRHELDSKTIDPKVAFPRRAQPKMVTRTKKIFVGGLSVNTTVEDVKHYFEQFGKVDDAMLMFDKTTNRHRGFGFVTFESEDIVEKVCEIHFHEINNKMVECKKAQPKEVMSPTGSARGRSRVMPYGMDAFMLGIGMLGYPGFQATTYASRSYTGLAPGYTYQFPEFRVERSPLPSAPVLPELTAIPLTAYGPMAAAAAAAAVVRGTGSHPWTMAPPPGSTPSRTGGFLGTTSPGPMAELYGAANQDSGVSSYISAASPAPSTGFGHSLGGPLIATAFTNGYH
row,Binder,binding signal
1,B1,0.197 enrichment R
2,B2,0.361 enrichment R
3,B3,1.74 enrichment R
4,B4,0.658 enrichment R
5,B5,0.539 enrichment R
6,B6,0.754 enrichment R
7,B7,0.238 enrichment R
8,B8,2.8 enrichment R
9,B9,0.352 enrichment R
10,B10,0.422 enrichment R
11,B11,3.3 enrichment R
12,B12,0.521 enrichment R
13,B13,0.572 enrichment R
14,B14,0.388 enrichment R
15,B15,2.16 enrichment R
16,B16,1.39 enrichment R
17,B17,0.476 enrichment R
18,B18,0.583 enrichment R
19,B19,2.13 enrichment R
20,B20,1.83 enrichment R
21,B21,3.09 enrichment R
22,B22,0.711 enrichment R
